Assay results reported in the RNAGym collection of RNA variant scans (doi:10.7554/elife.90254).
The source gives no read counts; variants with many changes may rest on few reads.

B1: LINE1-mini (parent)
chain: GGCAGAGCUCAACACAGCGUGGCAAAGUGGCUGUGGCUAGACUGCC

Variants of: B1
Test: self-cleavage, relative activity (ratio to wild type); higher = more cleavage; in vitro, sequencing; the parent is a self-cleaving ribozyme

Variant | self-cleavage
A6U C18A C31A | 0.07
G1C A12G U32G G33U A41G | 0.02
U9A A16C C31G C42G | 0
G5A A14G C23A | 0.15
A6U C13G G19C G22U U34A U43A | 0.05
C13U C18U G22A | 0.1
G2A C15G U34A C45U | 0.01
A4U A16U U32A | 0.07
C8G G22U G33C | 0.01
G1A C10A G22C C42U | 0.1
G5C C18G G21U C23U C31U | 0.09
A6U U32A G40U | 0.16
A6G C15U C18A | 0.08
C15G A26C C37A | 0.01
C10U A11G G30C G33U G44A | 0.01
A12C G29A G30C C37U | 0.01
G21A A39C C45G | 0.06
G5A C8G G19U G27C A41U C46A | 0.03
C8U U43G C45U | 0.17
C23U C31G G36A | 0.05
G19U G30A G40U C46U | 0.19
A26U G27U C42A U43G | 0.03
C3U A4G A6C G29A | 0.14
C10A U28A U34G | 0.04

Variant | self-cleavage
A12C A25U U32C G36C C46A | 0.01
C13A A25G G27U G35A C42U | 0.04
A6G G7A A11G C13A G21U | 0.01
A14U A16C G40U | 0.09
G2A G5U G29U A41C | 0.08
A6G C10A U34C C42G | 0.04
C3A G7U U9C A12U C13A G19C A25U | 0.01
A16U G19U G27U G33U | 0.03
G1U C3G A6C U9G G29U | 0.02
U9G A12U G29C G30U C37G | 0.02
G7A C15U G17C G33U C42A C45U | 0.06
C13A A24U G27U G36U C46A | 0.05
A14U G19A A25U G30A | 0.85
A6C U9A G35C A39U | 0.02
A14U G17U C42U | 0.02
G2A C3A U32C | 1.26
C13G G19A A25C C31G | 0.06
A12C G22A U32A G36A | 0.02
C3A A11G C13U A25C | 0.08
A12U G17U A24C A39C U43C | 0.02
C8G C23U C45U C46A | 0.03
C18G G22C G29A C37U | 0.26
C3A C18A C37G U38G U43G C45A | 0.02
C18U U32G G35A A39U | 0.05

Variant | self-cleavage
C3U A12U C18A G19C U28G C37U | 0.01
C3U G5A G33U | 0.02
A14U A16G C37U | 0.12
C15U G29C C42A | 0.12
A14G C23U A26C C37A C42A G44U | 0.12
G7U A11U A25U G27C A41G | 0.01
U32A G36U U38C | 0.04
A6G A16G A25U | 0.07
C15U A25G U34A | 0.08
U20G G21U C45A | 1.56
A11C U20A C23A | 0.06
A14G U32G C37A | 0.05
A6G G7C C45A | 0.29
A6G G30C C42U | 0.03
A6U G7U G40C G44U | 0.19
A12U C15U G36A G40A | 0.01
A6C G7C C13U G29U | 0.74
C3U A14U A26C U34G | 0.76
C13G A14U G27U U34G | 0.03
A14C G19A U34C G40A C42G C45U | 0.04
C8G G22A A41U | 0.19
C10U G27U U28G | 0.14
A4U G17C C23G G35C G36C C37U U38G | 0.02
U20C A24U C31G | 0.03

Variant | self-cleavage
C3A G5C G7U U28G G29A C37A | 0.2
G1A C3U A25G | 0.51
G7U C13G G33A G40U | 0.21
C10A A11U C15U G30A | 0.02
C13A G19U G21A G29U C46A | 0.13
U9A A12C A39C A41C C42U | 0
G1U G2A G27A U34A G36U | 0.71
C13A G19U U20C G40C C45G | 0.05
C15G G21U C23A U34A G36U | 0.01
A6G C15U A24C G29C U38G | 0.02
C15U A24G G27U G29A | 0.66
C3U A4G G19A | 0.06
C23A G30U C31A | 0.25
C3A A6C G21A | 1.32
A6U C15G G19U G22A U34G | 0.01
G1U A12G C37A | 0.05
A12U G17U A25C G30C | 0.19
A4G G22C U38C | 0.27
A16U G36A C42U | 0.03
A6U C8A U34G A39U | 0.19
C10U A11U C13U G17U G19A G33U | 0.02
C13U G17A C18G U32C | 0.08
G1C A16C G33U G36U G44U | 0
U20G A25G A26U U32A | 0.01

Variant | self-cleavage
A12C C13U U20G G22A A24U G29A C31U G33A | 0.05
A6C G22C C37U A41U | 0.04
G2A A14U G27A | 0.1
C8G G30A U34A C37U G44U | 0.01
A6U A12G A25U A41U | 0
C8U G17C C37A | 0.05
C13A C15A G21C C42A | 0.04
A6C G21A U34G | 0.07
G5U G7U A16G G40U C46A | 0.02
A14U G21A G22U A41U C42G | 0.04
C8G U9G G21U U38C | 0.02
A12U A16G G30A | 0.03
A11G G30U A41U | 0.01
C13U G27U C31U | 0.08
A6U C10A A16C G33C | 0.01
C3A G22C A26C | 1.08
A12G G22A C37U | 0.02
C3U U9C C13U C15A C42U C45U | 0.02
A4U A12G C31A C46U | 0.03
C15G C23G A25U | 0.03
A4U U9A C10A G21U G30A C46A | 0.03
G2C C23A G30A | 0.15
A16U C23A U28C U32C U38A G44A | 0.04
G1C G2C G19U C23U A24U G30U C45A | 0.02

Variant | self-cleavage
G5A C8A U20C | 0.2
A16U A25G G27C | 0.08
G1U G7C C10A A14G | 0
C15A G22U C42A | 0.14
G5U C13G U38G A41C | 0.02
A24U G35U G44U | 0.14
G5C C31U G36A U38C C45U | 0.02
C23U A24U G35C | 0.15
C10G U34C A41U | 0.03
G1C A11G A16C C23G | 0
G7U U9C C10U C13U U20G G22U | 0.01
G5U C10A U20C C23U U43A | 0.01
G7A A16G G30A A39G G40C C45A | 0.01
G2U A14C C15A G29C C37A C42A | 0.05
G1C A11C C15A G21A C23U | 0.01
G1A A16U C42A | 0.19
G29A G33C A39U A41U C42A | 0.02
G21C A26U G27C U38A | 0.64
C8A C37U C46G | 0.02
G1C A16G G30C U34G | 0.02
G7A C10U U28G A41U C45A | 0
G21U G22C G29A G36U A41G | 0.15
C8G A12C G17A C23U A24C A26U U38C C46G | 0
A6U G30A C45U | 0.79

Variant | self-cleavage
G2C A14C C37A | 0.03
A16U A25U G30A A39U G40C C42A | 0.12
C8A G19C A39U C42U | 0.03
U20A G22U A25G G27A | 0.46
G7A C8A A25U G40U | 0.25
G19C U20C U38A | 0.34
C15U G27U C42U C46A | 0.04
C10U A14C G27C C46U | 0.01
C8G C13A U28G G36A C42G | 0.02
G1U G5U G21U U28A | 0.03
C10A A11U C15G G30C U43A | 0.03
C8A C23U A41U | 0.63
C13A U20G G33A | 0.01
G19C U34A C42U | 0.08
G7C C31A G36U G44C | 0.01
A4C A12G G21A G40U | 0.02
U28G U43C C45A | 0.07
A14G A16G C18U A25C A26U | 0.03
G22A G27A C37U | 0.04
C3G U32A G33C | 0.36
C10A C15A C23G C42G | 0.01
C3A C15A C18A G21C | 0.28
C10G A26G C37U | 0.01
